# Results published in the supplement of paper PMC8728848.
# Some of the results follow.
# B1: Gal 2 (Homo sapiens), P05162 (protein)
# chain: MTGELEVKNMDMKPGSTLKITGSIADGTDGFVINLGQGTDKLNLHFNPRFSESTIVCNSLDGSNWGQEQREDHLCFSPGSEVKFTVTFESDKFKVKLPDGHELTFPNRLGHSHLSYLSVRGGFNMSSFKLKE
# How the values were obtained:
# Experiment in all cases: glycan array binding signal (z-score within array); higher = stronger binding
# Conditions in all cases: glycan notation: IUPAC condensed, linker removed
# [1] = target: GlcA3S(b1-3)Gal(b1-4)GlcNAc(b1-2)Man
# How it was run: (§1)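 Glycan array data came from 3228 arrays in the Consortium for Functional Glycomics database, and only arrays with an available protein sequence were kept. Glycan names were put into IUPAC-condensed notation, and columns mapping to the same glycan were averaged. The binding signal is a within-array Z-score, averaged across arrays of one protein sequence run at different concentrations or buffers and across linkers. A negative Z-score can be read as non-binding.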
# [2] = target: GlcA3S(b1-3)Gal(b1-4)GlcNAc(b1-3)Gal(b1-4)Glc
# How it was run: as §1
# [3] = target: GlcNAc(a1-3)Gal(b1-4)GlcNAc
# How it was run: as §1
# [4] = target: GlcNAc(a1-4)Gal(b1-3)GlcNAc
# How it was run: as §1
# [5] = target: GlcNAc(a1-4)Gal(b1-4)GalNAc
# How it was run: as §1
# [6] = target: GlcNAc(a1-4)Gal(b1-4)GlcNAc
# How it was run: as §1
# [7] = target: GlcNAc(a1-4)Gal(b1-4)GlcNAc(b1-3)Gal(b1-4)Glc
# How it was run: as §1
# [8] = target: GlcNAc(a1-4)Gal(b1-4)GlcNAc(b1-3)Gal(b1-4)GlcNAc
# How it was run: as §1
# [9] = target: GlcNAc(a1-4)Gal(b1-4)GlcNAc(b1-3)Gal(b1-4)GlcNAc(b1-3)Gal(b1-4)GlcNAc
# How it was run: as §1
# [10] = target: GlcNAc(a1-4)Gal(b1-4)GlcNAc(b1-3)Gal(b1-4)[Fuc(a1-3)]GlcNAc(b1-3)Gal(b1-4)[Fuc(a1-3)]GlcNAc
# How it was run: as §1
# [11] = target: GlcNAc(a1-6)Gal(b1-4)GlcNAc
# How it was run: as §1
# [12] = target: GlcNAc(b1-2)Gal(b1-3)GalNAc
# How it was run: as §1
# [13] = target: GlcNAc(b1-2)Gal(b1-3)GlcNAc
# How it was run: as §1
# [14] = target: GlcNAc(b1-2)Man(a1-3)[GlcNAc(b1-2)Man(a1-6)]Man(b1-4)GlcNAc(b1-4)GlcNAc
# How it was run: as §1
# [15] = target: GlcNAc(b1-2)Man(a1-3)[GlcNAc(b1-2)Man(a1-6)]Man(b1-4)GlcNAc(b1-4)[Fuc(a1-6)]GlcNAc
# How it was run: as §1
# [16] = target: GlcNAc(b1-2)Man(a1-3)[GlcNAc(b1-4)][GlcNAc(b1-2)Man(a1-6)]Man(b1-4)GlcNAc(b1-4)GlcNAc
# How it was run: as §1
# [17] = target: GlcNAc(b1-2)Man(a1-3)[GlcNAc(b1-4)][GlcNAc(b1-2)Man(a1-6)]Man(b1-4)GlcNAc(b1-4)[Fuc(a1-6)]GlcNAc
# How it was run: as §1
# [18] = target: GlcNAc(b1-2)[GlcNAc(b1-4)]Man(a1-3)[GlcNAc(b1-2)Man(a1-6)]Man(b1-4)GlcNAc(b1-4)GlcNAc
# How it was run: as §1
# [19] = target: GlcNAc(b1-2)[GlcNAc(b1-4)]Man(a1-3)[GlcNAc(b1-4)][GlcNAc(b1-2)Man(a1-6)]Man(b1-4)GlcNAc(b1-4)GlcNAc
# How it was run: as §1
# [20] = target: GlcNAc(b1-2)[GlcNAc(b1-4)]Man(a1-3)[GlcNAc(b1-4)][GlcNAc(b1-2)[GlcNAc(b1-6)]Man(a1-6)]Man(b1-4)GlcNAc(b1-4)GlcNAc
# How it was run: as §1
# [21] = target: GlcNAc(b1-2)[GlcNAc(b1-4)]Man(a1-3)[GlcNAc(b1-4)][GlcNAc(b1-2)[GlcNAc(b1-6)]Man(a1-6)]Man(b1-4)GlcNAc(b1-4)[Fuc(a1-6)]GlcNAc
# How it was run: as §1
# [22] = target: GlcNAc(b1-2)[GlcNAc(b1-6)]Man(a1-6)[GlcNAc(b1-2)Man(a1-3)]Man(b1-4)GlcNAc(b1-4)GlcNAc
# How it was run: as §1
# [23] = target: GlcNAc(b1-2)[GlcNAc(b1-6)]Man(a1-6)[GlcNAc(b1-2)Man(a1-3)]Man(b1-4)GlcNAc(b1-4)[Fuc(a1-6)]GlcNAc
# How it was run: as §1
# [24] = target: GlcNAc(b1-2)[GlcNAc(b1-6)]Man(a1-6)[GlcNAc(b1-4)][GlcNAc(b1-2)Man(a1-3)]Man(b1-4)GlcNAc(b1-4)GlcNAc
# How it was run: as §1
# [25] = target: GlcNAc(b1-3)Fuc
# How it was run: as §1
# [26] = target: GlcNAc(b1-3)Gal
# How it was run: as §1
# [27] = target: GlcNAc(b1-3)Gal(b1-3)GalNAc
# How it was run: as §1
# [28] = target: GlcNAc(b1-3)Gal(b1-4)Glc
# How it was run: as §1
# [29] = target: GlcNAc(b1-3)Gal(b1-4)GlcNAc
# How it was run: as §1
# [30] = target: GlcNAc(b1-3)Gal(b1-4)GlcNAc(b1-2)Man(a1-3)[GlcNAc(b1-3)Gal(b1-4)GlcNAc(b1-2)Man(a1-6)]Man(b1-4)GlcNAc(b1-4)GlcNAc
# How it was run: as §1
# [31] = target: GlcNAc(b1-3)Gal(b1-4)GlcNAc(b1-2)Man(a1-3)[GlcNAc(b1-3)Gal(b1-4)GlcNAc(b1-2)Man(a1-6)]Man(b1-4)GlcNAc(b1-4)[Fuc(a1-6)]GlcNAc
# How it was run: as §1
# [32] = target: GlcNAc(b1-3)Gal(b1-4)GlcNAc(b1-2)[GlcNAc(b1-3)Gal(b1-4)GlcNAc(b1-6)]Man(a1-6)[GlcNAc(b1-3)Gal(b1-4)GlcNAc(b1-2)Man(a1-3)]Man(b1-4)GlcNAc(b1-4)GlcNAc
# How it was run: as §1
# [33] = target: GlcNAc(b1-3)Gal(b1-4)GlcNAc(b1-3)Gal(b1-4)GlcNAc
# How it was run: as §1
# [34] = target: GlcNAc(b1-3)Gal(b1-4)GlcNAc(b1-3)Gal(b1-4)GlcNAc(b1-2)Man(a1-3)[GlcNAc(b1-3)Gal(b1-4)GlcNAc(b1-3)Gal(b1-4)GlcNAc(b1-2)Man(a1-6)]Man(b1-4)GlcNAc(b1-4)GlcNAc
# How it was run: as §1
# [35] = target: GlcNAc(b1-3)Gal(b1-4)GlcNAc(b1-3)Gal(b1-4)GlcNAc(b1-2)Man(a1-3)[GlcNAc(b1-3)Gal(b1-4)GlcNAc(b1-3)Gal(b1-4)GlcNAc(b1-2)Man(a1-6)]Man(b1-4)GlcNAc(b1-4)[Fuc(a1-6)]GlcNAc
# How it was run: as §1
# [36] = target: GlcNAc(b1-3)Gal(b1-4)GlcNAc(b1-3)Gal(b1-4)GlcNAc(b1-2)[GlcNAc(b1-3)Gal(b1-4)GlcNAc(b1-3)Gal(b1-4)GlcNAc(b1-6)]Man(a1-6)[GlcNAc(b1-3)Gal(b1-4)GlcNAc(b1-3)Gal(b1-4)GlcNAc(b1-2)Man(a1-3)]Man(b1-4)GlcNAc(b1-4)[Fuc(a1-6)]GlcNAc
# How it was run: as §1
# [37] = target: GlcNAc(b1-3)Gal(b1-4)GlcNAc(b1-3)Gal(b1-4)GlcNAc(b1-3)Gal(b1-4)GlcNAc(b1-2)Man(a1-3)[GlcNAc(b1-3)Gal(b1-4)GlcNAc(b1-3)Gal(b1-4)GlcNAc(b1-3)Gal(b1-4)GlcNAc(b1-2)Man(a1-6)]Man(b1-4)GlcNAc(b1-4)GlcNAc
# How it was run: as §1
# [38] = target: GlcNAc(b1-3)Gal(b1-4)GlcNAc(b1-3)Gal(b1-4)GlcNAc(b1-3)Gal(b1-4)GlcNAc(b1-2)Man(a1-3)[GlcNAc(b1-3)Gal(b1-4)GlcNAc(b1-3)Gal(b1-4)GlcNAc(b1-3)Gal(b1-4)GlcNAc(b1-2)Man(a1-6)]Man(b1-4)GlcNAc(b1-4)[Fuc(a1-6)]GlcNAc
# How it was run: as §1
# [39] = target: GlcNAc(b1-3)Gal(b1-4)GlcNAc(b1-3)Gal(b1-4)GlcNAc(b1-3)Gal(b1-4)GlcNAc(b1-2)[GlcNAc(b1-3)Gal(b1-4)GlcNAc(b1-3)Gal(b1-4)GlcNAc(b1-3)Gal(b1-4)GlcNAc(b1-6)]Man(a1-6)[GlcNAc(b1-3)Gal(b1-4)GlcNAc(b1-3)Gal(b1-4)GlcNAc(b1-3)Gal(b1-4)GlcNAc(b1-2)Man(a1-3)]Man(b1-4)GlcNAc(b1-4)[Fuc(a1-6)]GlcNAc
# How it was run: as §1
# [40] = target: GlcNAc(b1-3)Gal(b1-4)GlcNAc(b1-3)Gal(b1-4)GlcNAc(b1-3)Gal(b1-4)GlcNAc(b1-3)Gal(b1-4)GlcNAc(b1-2)Man(a1-3)[GlcNAc(b1-3)Gal(b1-4)GlcNAc(b1-3)Gal(b1-4)GlcNAc(b1-3)Gal(b1-4)GlcNAc(b1-3)Gal(b1-4)GlcNAc(b1-2)Man(a1-6)]Man(b1-4)GlcNAc(b1-4)GlcNAc
# How it was run: as §1
# [41] = target: GlcNAc(b1-3)Gal(b1-4)GlcNAc(b1-3)Gal(b1-4)GlcNAc(b1-3)Gal(b1-4)GlcNAc(b1-3)Gal(b1-4)GlcNAc(b1-2)Man(a1-3)[GlcNAc(b1-3)Gal(b1-4)GlcNAc(b1-3)Gal(b1-4)GlcNAc(b1-3)Gal(b1-4)GlcNAc(b1-3)Gal(b1-4)GlcNAc(b1-2)Man(a1-6)]Man(b1-4)GlcNAc(b1-4)[Fuc(a1-6)]GlcNAc
# How it was run: as §1
# [42] = target: GlcNAc(b1-3)Gal(b1-4)GlcNAc(b1-3)Gal(b1-4)GlcNAc(b1-3)Gal(b1-4)GlcNAc(b1-3)Gal(b1-4)GlcNAc(b1-2)[GlcNAc(b1-3)Gal(b1-4)GlcNAc(b1-3)Gal(b1-4)GlcNAc(b1-3)Gal(b1-4)GlcNAc(b1-3)Gal(b1-4)GlcNAc(b1-6)]Man(a1-6)[GlcNAc(b1-3)Gal(b1-4)GlcNAc(b1-3)Gal(b1-4)GlcNAc(b1-3)Gal(b1-4)GlcNAc(b1-3)Gal(b1-4)GlcNAc(b1-2)Man(a1-3)]Man(b1-4)GlcNAc(b1-4)[Fuc(a1-6)]GlcNAc
# How it was run: as §1
# [43] = target: GlcNAc(b1-3)Gal(b1-4)GlcNAc(b1-3)Gal(b1-4)GlcNAc(b1-3)GalNAc
# How it was run: as §1
# [44] = target: GlcNAc(b1-3)Gal(b1-4)GlcNAc(b1-3)GalNAc
# How it was run: as §1
# [45] = target: GlcNAc(b1-3)Gal(b1-4)GlcNAc(b1-3)[GlcNAc(b1-3)Gal(b1-4)GlcNAc(b1-3)]GalNAc
# How it was run: as §1
binder,measurement,setting,value
B1,glycan array binding signal (z-score),[1],0.012
same,glycan array binding signal (z-score),[2],-0.091
same,glycan array binding signal (z-score),[3],0.09
same,glycan array binding signal (z-score),[4],-0.26
same,glycan array binding signal (z-score),[5],-0.255
same,glycan array binding signal (z-score),[6],-0.28
same,glycan array binding signal (z-score),[7],-0.268
same,glycan array binding signal (z-score),[8],-0.28
same,glycan array binding signal (z-score),[9],-0.153
same,glycan array binding signal (z-score),[10],-0.128
same,glycan array binding signal (z-score),[11],-0.293
same,glycan array binding signal (z-score),[12],-0.257
same,glycan array binding signal (z-score),[13],-0.357
same,glycan array binding signal (z-score),[14],-0.269
same,glycan array binding signal (z-score),[15],-0.137
same,glycan array binding signal (z-score),[16],-0.084
same,glycan array binding signal (z-score),[17],-0.132
same,glycan array binding signal (z-score),[18],0.001
same,glycan array binding signal (z-score),[19],-0.259
same,glycan array binding signal (z-score),[20],-0.09
same,glycan array binding signal (z-score),[21],-0.177
same,glycan array binding signal (z-score),[22],-0.045
same,glycan array binding signal (z-score),[23],-0.06
same,glycan array binding signal (z-score),[24],-0.192
same,glycan array binding signal (z-score),[25],-0.228
same,glycan array binding signal (z-score),[26],-0.282
same,glycan array binding signal (z-score),[27],-0.241
same,glycan array binding signal (z-score),[28],-0.274
same,glycan array binding signal (z-score),[29],-0.262
same,glycan array binding signal (z-score),[30],-0.103
same,glycan array binding signal (z-score),[31],0.078
same,glycan array binding signal (z-score),[32],0.227
same,glycan array binding signal (z-score),[33],-0.285
same,glycan array binding signal (z-score),[34],-0.043
same,glycan array binding signal (z-score),[35],-0.128
same,glycan array binding signal (z-score),[36],-0.151
same,glycan array binding signal (z-score),[37],-0.092
same,glycan array binding signal (z-score),[38],-0.093
same,glycan array binding signal (z-score),[39],-0.154
same,glycan array binding signal (z-score),[40],-0.091
same,glycan array binding signal (z-score),[41],0.017
same,glycan array binding signal (z-score),[42],-0.036
same,glycan array binding signal (z-score),[43],-0.103
same,glycan array binding signal (z-score),[44],-0.139
same,glycan array binding signal (z-score),[45],-0.277
